These are yes or no findings as the source states them, for the method shown. For some of these results: In cells and extracts the contact can be indirect. Some results given as binding are weak or reduced against the parent protein; the word gives no strength. For some of these results: Where a sequence is shown, tags or fusion partners need not be part of it.

The chains behind the UniProt entries cited, without tags or fusion partners. Where a name states a change or a piece, a line headed by the entry shows the natural chain unless it says otherwise. A line that says so, or that is headed by a name, gives the form on record, which may keep a tag or linker. Residues count along the entry.
UniProt P32854: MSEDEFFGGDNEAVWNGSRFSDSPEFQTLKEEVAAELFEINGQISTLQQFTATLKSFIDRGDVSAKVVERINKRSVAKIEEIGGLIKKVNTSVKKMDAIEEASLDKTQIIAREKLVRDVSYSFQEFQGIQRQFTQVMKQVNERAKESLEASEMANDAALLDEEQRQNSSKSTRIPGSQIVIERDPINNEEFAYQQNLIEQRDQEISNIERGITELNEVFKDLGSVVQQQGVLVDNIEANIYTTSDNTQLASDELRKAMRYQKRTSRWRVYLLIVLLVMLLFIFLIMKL
Habc domain of Pep12p (AA 1-200) fused to the DNA-binding domain of LexA: residues 1-200 of P32854
UniProt Q08144: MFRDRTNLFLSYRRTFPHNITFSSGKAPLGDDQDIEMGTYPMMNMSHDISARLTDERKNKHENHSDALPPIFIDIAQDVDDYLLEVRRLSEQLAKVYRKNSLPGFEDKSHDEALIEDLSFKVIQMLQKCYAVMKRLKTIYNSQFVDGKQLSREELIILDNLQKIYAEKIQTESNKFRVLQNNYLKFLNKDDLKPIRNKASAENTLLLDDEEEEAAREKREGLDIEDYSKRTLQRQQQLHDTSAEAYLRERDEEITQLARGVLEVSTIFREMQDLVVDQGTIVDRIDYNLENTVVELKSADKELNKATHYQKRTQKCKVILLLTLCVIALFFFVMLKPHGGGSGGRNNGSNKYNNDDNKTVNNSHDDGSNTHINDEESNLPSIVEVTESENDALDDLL
UniProt Q04338: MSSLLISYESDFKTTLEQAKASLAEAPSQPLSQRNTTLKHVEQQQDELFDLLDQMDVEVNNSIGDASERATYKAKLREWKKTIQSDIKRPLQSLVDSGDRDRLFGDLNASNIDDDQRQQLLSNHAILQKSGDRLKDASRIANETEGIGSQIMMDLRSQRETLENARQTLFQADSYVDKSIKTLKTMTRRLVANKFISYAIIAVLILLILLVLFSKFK
Vti1p without its transmembrane domain (AA 1-188) fused to the DNA-binding domain of LexA: residues 1-188 of Q04338
Habc domain of Vti1p (AA 1-115) fused to the DNA-binding domain of LexA: residues 1-115 of Q04338
SNARE motif of Vti1p (AA 116-188) fused to the DNA-binding domain of LexA: residues 116-188 of Q04338

These results are taken from publication PMC3680383.

Test [1] has as its target Pep12p (S. cerevisiae (endogenous in strains SSY4 and SCY18)) (UniProt P32854). Nature of the test: co-IP; antiserum against Pep12p or Vam3p or monoclonal anti-c-myc 9E10 cross-linked to protein G-sepharose; spheroplasts of wild type (SSY4) or vti1-3 (SCY18) cells incubated 1 h at 24°C (wild type also at 37°C) before lysis in 20 mM HEPES-KOH pH 7.0, 100 mM KCl, 2 mM EDTA, 0.5% Triton X-100; beads overnight at 4°C; immunoblotting.

For test [2], the target named is T1, Vam3p (S. cerevisiae (endogenous in strains SSY4 and SCY18)) (UniProt Q12241).
T1 sequence: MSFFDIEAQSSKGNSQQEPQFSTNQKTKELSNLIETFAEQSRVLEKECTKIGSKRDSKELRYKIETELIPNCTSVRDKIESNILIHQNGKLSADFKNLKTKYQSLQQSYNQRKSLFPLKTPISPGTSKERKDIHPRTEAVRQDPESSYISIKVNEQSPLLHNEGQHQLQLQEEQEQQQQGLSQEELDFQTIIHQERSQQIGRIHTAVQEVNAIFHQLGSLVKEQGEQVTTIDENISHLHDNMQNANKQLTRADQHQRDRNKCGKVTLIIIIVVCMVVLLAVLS
The test is described as above.

Test [3] deals with myc-Tlg2p (S. cerevisiae) (UniProt Q08144). The test is described as above.
The target of test [4] is Pep12p (S. cerevisiae (endogenous in strains SSY4 and SCY18)) (UniProt P32854). In words: co-IP; as a1, but spheroplasts of vti1-3 cells (SCY18) incubated 1 h at 37°C (restrictive temperature) before lysis; blots quantified, coprecipitated Vti1p normalized to the precipitated Qa-SNARE, Vti1p isolated at 24°C set to 100%.
Test [5] has as its target Habc domain of Vti1p (AA 1-115) fused to the DNA-binding domain of LexA (S. cerevisiae) (UniProt Q04338). In words: two-hybrid; L40 cells; LexA DNA-binding domain fusions (pLexN) as bait, Vps51p in pVP16-3 as prey; growth on minimal medium lacking uracil, lysine, tryptophan, leucine and histidine with 20 mM 3-aminotriazole.
Test [6] concerns the target SNARE motif of Vti1p (AA 116-188) fused to the DNA-binding domain of LexA (S. cerevisiae) (UniProt Q04338). Described as above.
Test [7] addresses Habc domain of Pep12p (AA 1-200) fused to the DNA-binding domain of LexA (S. cerevisiae) (UniProt P32854). Described as above.
The target in test [8] is Vti1p without its transmembrane domain (AA 1-188) fused to the DNA-binding domain of LexA (S. cerevisiae) (UniProt Q04338). The description is as above.

Consider “Vti1p (wild type) (from UniProt Q04338 1-217)”, for which the binding result in test [1], in test [2] and in test [3] was “binds” in each case.

With “vti1-3p (Vti1p Q29R W79R) (from UniProt Q04338 1-217)”, the binding entry in test [2] and in test [3] was “binds” throughout.

B1: Syn8p (protein, UniProt P31377 1-255)
chain: MDVLKLGYELDQLSDLVEERTRLVSVLKLAPTSNDNVTLKRQLGSILELLQKCAPNDELISRYNTILDKIPDTAVDKELYRFQQQVARNTDEVSKESLKKVRFKNDDELTVMYKDDDEQDEESPLPSTHTPYKDEPLQSQLQSQSQPQPPQPMVSNQELFINQQQQLLEQDSHLGALSQSIGRTHDISLDLNNEIVSQNDSLLVDLENLIDNNGRNLNRASRSMHGFNNSRFKDNGNCVIILVLIVVLLLLLLVL
For the molecule B1, the results for the binding entry in test [1] and in test [4] were “binds” and “no binding (condition: vti1-3 cells after 1 h at 37°C)”, respectively.

B2: Vam7p (protein, UniProt P32912 1-316)
chain: MAANSVGKMSEKLRIKVDDVKINPKYVLYGVSTPNKRLYKRYSEFWKLKTRLERDVGSTIPYDFPEKPGVLDRRWQRRYDDPEMIDERRIGLERFLNELYNDRFDSRWRDTKIAQDFLQLSKPNVSQEKSQQHLETADEVGWDEMIRDIKLDLDKESDGTPSVRGALRARTKLHKLRERLEQDVQKKSLPSTEVTRRAALLRSLLKECDDIGTANIAQDRGRLLGVATSDNSSTTEVQGRTNNDLQQGQMQMVRDQEQELVALHRIIQAQRGLALEMNEELQTQNELLTALEDDVDNTGRRLQIANKKARHFNNSA
As for B2, the binding entry in test [2] is “binds”.

B3: full-length Vps51p fused to the VP16 activation domain (protein, UniProt P36116 1-164)
chain: MAEQISHKKSLRVSSLNKDRRLLLREFYNLENEPNKGRQEARIGEKASEAHSGEEQVTDVNIDTEANTEKPVKDDELSATEEDLKEGSEDAEEEIKNLPFKRLVQIHNKLLGKETETNNSIKNTIYENYYDLIKVNDLLKEITNANEDQINKLKQTVESLIKEL
Take B3: the binding entry in test [5], in test [6], in test [7] and in test [8] was “no binding” throughout.

B4: Nyv1p (protein, UniProt Q12255 1-253)
chain: MKRFNVSYVEVIKNGETISSCFQPFQKNENYGTITSANEQITPVIFHNLIMDMVLPKVVPIKGNKVTKMSMNLIDGFDCFYSTDDHDPKTVYVCFTLVDMPKILPIRILSGLQEYESNATNELLSSHVGQILDSFHEELVEYRNQTLNSSGNGQSSNGNGQNTISDIGDATEDQIKDVIQIMNDNIDKFLERQERVSLLVDKTSQLNSSSNKFRRKAVNIKEIMWWQKVKNITLLTFTIILFVSAAFMFFYLW
As to B4, the binding entry in test [2] is listed as “binds weakly”.
